Laboratory results as given in the RNAGym collection of RNA variant scans (doi:10.1073/pnas.2313332121).
Variants at the background level are over-represented here.

B1: TPR 5TU (parent)
chain: GGAUCUUCUCGAUCUAACAAAAAAGACAAAUCUGCCACAAAGCUUGAGAGCAUCUUCGGAUGCAGAGGCGGCAGCCUUCGGUGGCGCGAUAGCGCCAACGUUCUCAACUAUGACACGCAAAACGCGUGCUCCGUUGAAUGGAGUUUAUCAUG

Variants of: B1
Experiment: polymerase ribozyme fitness, log enrichment relative to wild type (log ratio); higher = more active; in vitro selection for triplet polymerase activity
How it was run: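 A heterodimeric triplet polymerase ribozyme had each of its subunits mutagenized by PCR into a library, which was transcribed. One round of in vitro selection, done in triplicate, annealed each library with a biotinylated primer, its partner subunit and triplets, then incubated it frozen at −7 °C before gel excision of extended constructs, streptavidin-bead capture and RT-PCR. Fitness is the logarithm of genotype enrichment relative to wild-type enrichment, based on Illumina sequencing of inputs and outputs and inverse-variance-weighted replicate averages. A base-2 logarithm is used, and genotypes were kept only with ≥10 input reads and ≥1 read per output.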

Row | Variant | polymerase ribozyme fitness (log ratio)
1 | C8A G92C G143C U148G | ≤ -4.2
2 | C8A A12U C14G C18U A30G C76G A120U C129A U139A A150U | ≤ -4.2
3 | C8G G83A U101C | ≤ -4.2
4 | C8G C18U A28G A49G C87G | ≤ -4.2
5 | C8G U44G C57A C76A C96U G100C A106C | ≤ -4.2
6 | C8A G50A U53A G84A G117U U134G | ≤ -4.2
7 | C8A A30U C76G U78C C116U | ≤ -4.2
8 | C8U A23U G46A A49C A91C C129G | ≤ -4.2
9 | C8A A23U A28U U56A U77C G86U C103G A115U C125A G143U | ≤ -4.2
10 | C8A A22U A41C C93A G136C | ≤ -4.2
11 | C8G A49G U82G C87U G94A A120G | ≤ -4.2
12 | C8G G67A G94A C95U A106G | ≤ -4.2
13 | C8G A41G C79A G84A A89U | ≤ -4.2
14 | C8A A20G G68C C85A G126A | ≤ -4.2
15 | C8A A26U | -3.66
16 | C8A A22C C35U G48C A73U | ≤ -4.2
17 | C8G C10G A20U A29U C95U A107G | ≤ -4.2
18 | C8U A23U G62A G88U C103A U134G | ≤ -4.2
19 | C8A A12U G25A G86U C131G | ≤ -4.2
20 | C8A A19C A21U A119G | ≤ -4.2
21 | C8U A24G G46C G58U C69A C93A C99A G133A | ≤ -4.2

Row | Variant | polymerase ribozyme fitness (log ratio)
22 | C8U A12G U13G U77C U82A A89G A91G U102A | ≤ -4.2
23 | C8G G48A A52C U53A C54U G67U G81U A91C C118U | ≤ -4.2
24 | C8A U9C G42U C93A C99U A120U | ≤ -4.2
25 | C8A C51G U55A C85G C99U C105A G140A | ≤ -4.2
26 | C8U A19C A24U A66C A73U G84U C85U C87G C103G C131G | ≤ -4.2
27 | C8A A39U G94C A119U | ≤ -4.2
28 | C8G C32A A60C G80C C96U C99A | ≤ -4.2
29 | C8G A24C G94C C131U | ≤ -4.2
30 | C8G C10A C54G C72G G74U G83U C87U G94U C103U | ≤ -4.2
31 | C8G A20C C32U A40G G65C G83A U101C | ≤ -4.2
32 | C8A U31G U33G A40U C51U U77C C93G C108G C116U A147G | ≤ -4.2
33 | C8G A17U G25C C87G C105A A106U | ≤ -4.2
34 | C8U A24U C27U A37C G74A G81A A106C G117C G128A | ≤ -4.2
35 | C8G C18A A23U A73U C93A C118A | ≤ -4.2
36 | C8G G62C G100A A122C A137U | ≤ -4.2
37 | C8G A21G A28U U77C C79U A122C G152U | ≤ -4.2
38 | C8G A20G A28U G50A C72A A73C | ≤ -4.2
39 | C8A C85G C103U A110G U134G C149G | ≤ -4.2
40 | C8G C35U C57G U77A U82G G83C C93A A137G | ≤ -4.2
41 | C8G G11C A30C C96U A138C | ≤ -4.2
42 | C8G G42A C85G A98G A115G U135G | ≤ -4.2

Row | Variant | polymerase ribozyme fitness (log ratio)
43 | C8G G50C U61A C72A G84A C93U A98U U104C A147U | ≤ -4.2
44 | C8U A23U G59U G68U U82C A91U A97U G133C | ≤ -4.2
45 | C8A A20U C36U C63G C96U C99U G152U | ≤ -4.2
46 | C8G A21G G83C | ≤ -4.2
47 | C8G G58A C85G | ≤ -4.2
48 | C8G U55G G65A G68A C99U | ≤ -4.2
49 | C8A C51A A73U C93U A107U G143A | ≤ -4.2
50 | C8A A16G A19C A20G C43U U53A C85U C96U A119U A120C U134A | ≤ -4.2
51 | C8A A17G A60C C85U | ≤ -4.2
52 | C8A G25U G50A C57A C87A A107U C116G U148C | ≤ -4.2
53 | C8G U31A G59U C118U | ≤ -4.2
54 | C8G A29G G58U G94A G140A A147U | ≤ -4.2
55 | C8A C18U A19U A21U U61A G62U A91G G94U | ≤ -4.2
56 | C8G G68A G83C G88A A91U | ≤ -4.2
57 | C8U A21U A29C G58A C87A C95G | ≤ -4.2
58 | C8U A24U C51G G58C A64C C85U | ≤ -4.2
59 | C8G A30G A64C A110U | ≤ -4.2
60 | C8G A26U C27G G84A U109G C116G | ≤ -4.2
61 | C8G C27U A40C G42A G50A G58A G92A | ≤ -4.2
62 | C8U A28G A29U A30U U33A A73G G92U U148C | ≤ -4.2
63 | C8A C35A A73U C93U | ≤ -4.2

Row | Variant | polymerase ribozyme fitness (log ratio)
64 | C8U A26U C27U G92C G100C C103G | ≤ -4.2
65 | C8A C27U C76U | ≤ -4.2
66 | C8A A16U U55A C87A G124C | ≤ -4.2
67 | C8G U56G G80C C85U C96G U109C A147G A150U | ≤ -4.2
68 | C8U A19G A20U A28C G86U C93G A113U | ≤ -4.2
69 | C8G C93A | ≤ -4.2
70 | C8A C14U C36U A47U C95A C96U A97G | ≤ -4.2
71 | C8G C35U C93G | ≤ -4.2
72 | C8G A28U G83A G94A | ≤ -4.2
73 | C8A G42U G50A G74U C95U | ≤ -4.2
74 | C8A G46U A49U G68C G86U C105A | ≤ -4.2
75 | C8A C10U U15A G34A U55A C69A C76U G80C C87G A89C A107C C116U | ≤ -4.2
76 | C8A G50A U56C G92C A106C A120G | ≤ -4.2
77 | C8A C14A A17U C85U A89U | ≤ -4.2
78 | C8A A17C A24G A30G C35G G81C A89C G141C | -3.67
79 | C8U A21U A29C C57G G84U C149G | ≤ -4.2
80 | C8A A17G A21C U53A A113C | ≤ -4.2
81 | C8G A24C C32U C57U | ≤ -4.2
82 | C8A A91U G92A G112U | ≤ -4.2
83 | C8A C85U G152U | ≤ -4.2
